Hit rate of the full screen: of about 310,000 compounds, about 14,000 (4.5%) showed an effect of 50% or more. The effect is printed as a negative number. This is one part of the list.
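Note: peak tail current of the secondary pulse compared with the same well before compound.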

Chain of human ether-à-go-go-related gene (hERG) potassium channel (Q12809 whole entry, looked up): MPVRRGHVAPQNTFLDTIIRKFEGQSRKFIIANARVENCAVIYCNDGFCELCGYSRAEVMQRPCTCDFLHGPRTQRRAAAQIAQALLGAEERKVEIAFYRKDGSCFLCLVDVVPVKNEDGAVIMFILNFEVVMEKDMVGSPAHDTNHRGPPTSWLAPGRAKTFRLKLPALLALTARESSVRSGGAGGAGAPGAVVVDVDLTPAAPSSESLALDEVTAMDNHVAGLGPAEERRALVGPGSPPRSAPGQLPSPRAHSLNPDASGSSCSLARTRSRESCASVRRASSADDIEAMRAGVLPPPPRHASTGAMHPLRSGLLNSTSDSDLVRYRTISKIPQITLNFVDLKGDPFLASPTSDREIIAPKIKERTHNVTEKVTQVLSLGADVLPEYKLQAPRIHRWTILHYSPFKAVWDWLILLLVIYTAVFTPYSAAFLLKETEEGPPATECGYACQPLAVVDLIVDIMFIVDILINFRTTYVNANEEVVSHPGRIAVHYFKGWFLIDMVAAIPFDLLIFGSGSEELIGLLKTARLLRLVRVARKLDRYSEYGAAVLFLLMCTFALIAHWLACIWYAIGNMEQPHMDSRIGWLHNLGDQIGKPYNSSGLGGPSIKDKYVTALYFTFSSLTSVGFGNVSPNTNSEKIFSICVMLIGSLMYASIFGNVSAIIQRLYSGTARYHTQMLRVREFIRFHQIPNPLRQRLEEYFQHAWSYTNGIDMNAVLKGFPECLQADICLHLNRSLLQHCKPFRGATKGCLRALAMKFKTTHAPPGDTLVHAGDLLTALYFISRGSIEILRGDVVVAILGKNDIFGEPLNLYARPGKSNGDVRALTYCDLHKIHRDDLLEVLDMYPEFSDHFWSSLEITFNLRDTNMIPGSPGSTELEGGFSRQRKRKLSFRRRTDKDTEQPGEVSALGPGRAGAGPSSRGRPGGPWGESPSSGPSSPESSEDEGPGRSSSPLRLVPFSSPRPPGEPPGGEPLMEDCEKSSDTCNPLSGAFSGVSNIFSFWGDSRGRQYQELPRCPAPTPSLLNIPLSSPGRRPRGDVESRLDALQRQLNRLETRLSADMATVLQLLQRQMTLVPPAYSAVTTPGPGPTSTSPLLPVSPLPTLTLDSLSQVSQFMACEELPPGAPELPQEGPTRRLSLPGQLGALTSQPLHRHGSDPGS

The assay has as its target human ether-à-go-go-related gene (hERG) potassium channel (human, UniProt Q12809). Description: primary screen, population patch clamp on CHO cells stably expressing hERG.
Turning to `Nc1ccc(S(=O)(=O)Nc2cnc3ccccc3n2)cc1`, the “hERG current change (%, negative = inhibition) at 10uM” value stood at 8.38%.
Next, `CC(OC(=O)c1oc2ccccc2c1COc1ccccc1)C(=O)NC(N)=O` (stereo not drawn): 14.4%; `CN1CC(c2ccccn2)C2(SC(=S)N(Cc3ccccc3)C2=O)C12C(=O)Nc1ccccc12` (stereo not drawn): -13.5%; `Cc1nn2c(-c3ccccn3)ccnc2c1Cl`: 19.5%.
Next, `Cc1cnc(CN(C)Cc2c(C(=O)N3CCCCCCC3)nc3ccc(Cl)cn23)[nH]1`: -29%; `Cc1ccc(S(=O)(=O)c2c(COC(=O)c3cccc(Cl)c3)c(-c3ccccc3)nn2C)cc1`: -14.7%.
Regarding `CCCc1ccc2c(N)c(C#N)sc2n1`, the “hERG current change (%, negative = inhibition) at 10uM” value is -8.91%.
`CC(C)[C@H](NC(=O)N1CCn2c1nc1ccccc12)C(=O)NCC1CCCO1` (stereo partly drawn): the “hERG current change (%, negative = inhibition) at 10uM” value amounted to 15.2%.
The value for `Cc1ccc(CNC(=O)COC(=O)CCC(=O)c2cccs2)cc1` was 5.14%; that for `CCC(=O)N1CCN(c2ccc(NC(=O)c3ccc4ccccc4c3)cc2)CC1` was 22.6%.
Consider `COc1cc(Nc2nc3ccccc3n3nnnc23)cc(OC)c1OC`, for which the “hERG current change (%, negative = inhibition) at 10uM” value worked out at 12.5%.
The value for `CN(C)Cc1ccccc1Sc1ccc2c(c1)CCCC2.O=C(O)C(=O)O` was -4.87%; that for `Cc1ccccc1N(C(=O)Cn1nnc(-c2ccc(F)cc2)n1)C(C(=O)NC(C)(C)C)c1ccncc1` (stereo not drawn) was -12.6%; that for `Cc1cccc(N=Cc2c(O)n(C)c(=O)n(C)c2=O)c1` was 8.18%.
Regarding `O=C(COC(=O)Cn1[nH]c(=O)c2ccccc2c1=O)NNC(=O)c1ccccc1`, the “hERG current change (%, negative = inhibition) at 10uM” value was 7.14%.
The value for `O=C(N/N=C/c1c(O)ccc2ccccc12)c1ccc(CO)nc1` was 7.09%; that for `COc1ccc(C(=O)CSc2cc(C)nc3nc(C)nn23)cc1OC` was 11.6%; that for `CCOC(=O)c1sc2nc3c(cc2c1N)COC(C(C)C)C3` (stereo not drawn) was -3.48%.
`CC(C)Cc1cc(CN2CCC(CO)(Cc3cccc(C(F)(F)F)c3)CC2)[nH]n1`: the “hERG current change (%, negative = inhibition) at 10uM” value is recorded as -78%.
Next, `Cc1c(NC(=O)CSCc2ccco2)c(=O)n(-c2ccccc2)n1C`: 4.61%; `Cc1ccnc(NC(=O)C2CCC(CNc3c(N4CCCC4)c(=O)c3=O)CC2)c1` (stereo not drawn): -5.02%; `COc1ccc(NC(=O)c2ccc(COCC(F)(F)C(F)F)cc2)cc1OC`: 7.39%.
The value for `Cc1cccc(NC(=O)NNC(=O)c2ccc3ccccc3c2)c1` was 15.8%; that for `COc1ccccc1N1CCN(Cc2nc3ccsc3c(=O)[nH]2)CC1` was 8.76%.
Next, `O=C(CC1SC(N2CCCC2)=NC1=O)Nc1ccc(C(=O)Nc2ccccc2)cc1` (stereo not drawn): 9.03%.
As for `COc1cccc(C(=O)NNC(=O)c2ccc3ccccc3c2O)c1`, the “hERG current change (%, negative = inhibition) at 10uM” value is given as 7.66%.
The value for `Cc1ccc(/C=N/N(C)S(=O)(=O)c2ccc(C)cc2)cc1` was -14.7%; that for `CC(=O)c1ccc(N2CCN(C(=S)Nc3cc(C)ccc3C)CC2)cc1` was -7.26%; that for `COC(=O)Nc1ccc(S(=O)(=O)N(C)C)cc1` was -4.33%.
Next, `COc1ccccc1C(=O)N1CCN(Cc2nc3cc([N+](=O)[O-])ccc3n2C)CC1`: -67.6%; `Cc1cc(=O)n2[nH]c(NCc3c(F)cccc3Cl)nc2n1`: 20.1%; `Cc1ccc(C)c(NCc2ccccc2CO)c1`: -11.4%.
The value for `COC(=O)C1=C(c2cc3ccccc3s2)C[C@@H]2CC[C@H]1N2C(=O)N1CCCCC1` was -5.45%.
As for `CC(=O)N1CCN(c2ccccc2NC(=O)COc2cc(C)cc(C)c2)CC1`, the “hERG current change (%, negative = inhibition) at 10uM” value is listed as -52.4%.
Next, `COCCn1cnnc1SCC(=O)Nc1cccc(S(=O)(=O)N2CCCCCC2)c1`: -60.3%; `CCc1ccccc1OCC(=O)Nc1nc(-c2cccnc2)cs1`: 3.46%; `CC(Oc1ccccc1)C(=O)N1CCN=C1SCc1cccc(F)c1` (stereo not drawn): -21.5%.
On to `CCOC(=O)C1CCN(C(=O)Nc2cccc(OC)c2)CC1`, for which the “hERG current change (%, negative = inhibition) at 10uM” value turned out to be 9.66%.
The value for `COc1ccc(CNC(=O)CSc2nc3ccc(C)cc3[nH]2)cc1OC` was 12%; that for `CCc1nn(CCCC(=O)NCc2ccccc2Br)c(=O)c2cc3occc3n12` was -30.5%.
Next, `COc1ccccc1C(CC(=O)O)NS(=O)(=O)c1ccc2c(c1)N(C(C)=O)CC(C)O2` (stereo not drawn): 25.8%.
The value for `CCCCN(C(=O)CSc1nnc(-c2ccc(OC)cc2)n1CC)c1c(N)n(Cc2ccccc2)c(=O)[nH]c1=O` was 0.535%.
With `O=C(NCc1ccccc1)NCC12CC3CC(CC(C3)C1)C2`, the “hERG current change (%, negative = inhibition) at 10uM” value is 17.5%.
Consider `COc1ccc(C(=O)NC(=S)N2CCCCC2)cc1[N+](=O)[O-]`, for which the “hERG current change (%, negative = inhibition) at 10uM” value was 7.57%.
On to `Cc1csc(=O)n1CCC(=O)OCC(=O)Nc1cccc(C#N)c1`, for which the “hERG current change (%, negative = inhibition) at 10uM” value is -25.3%.
Take `COc1ccccc1N1C(=NC(=O)CCC2CCCC2)SC2CS(=O)(=O)CC21` (stereo not drawn): the “hERG current change (%, negative = inhibition) at 10uM” value came out at 16.4%.
Regarding `NC(=O)c1ccsc1NC(=O)COC(=O)/C=C/c1ccc([N+](=O)[O-])cc1`, the “hERG current change (%, negative = inhibition) at 10uM” value was -9.32%.
For the molecule `CNC(C(=O)c1ccccc1)C(OC(C)=O)c1cccc([N+](=O)[O-])c1.[O-][Cl+3]([O-])([O-])O` (stereo not drawn), the “hERG current change (%, negative = inhibition) at 10uM” value amounted to 13.3%.
Next, `COc1ccc(S(=O)(=O)Nc2cccnc2)c(C)c1C`: -6%; `COc1ccc(C(=O)NN)cc1`: 0.991%; `CCC(C)Sc1ccc([C@H]2N[C@@](C)(C(=O)OC)[C@H]3C(=O)N(CC)C(=O)[C@@H]23)cc1.O=C(O)C(F)(F)F` (stereo partly drawn): 7.25%.
For the molecule `CC(C)CCNC(=O)Cn1cc2c(n1)CCCCC2`, the “hERG current change (%, negative = inhibition) at 10uM” value is given as 4.9%.
The value for `Cc1cc(C)cc(C(=O)N[C@@H](C)C(=O)N2CCC3(CC2)NCCc2[nH]cnc23)c1` was 24.5%; that for `CN1CCN(C(=O)c2ccc3c(c2)N(Cc2cccc(Cl)c2)C(=O)c2ccccc2S3=O)CC1` (stereo not drawn) was -19.5%; that for `O=C(OCC(=O)N1CCCC1=O)c1ccc(F)c(S(=O)(=O)N2CCOCC2)c1` was -2.99%.
The value for `O=C(NNS(=O)(=O)c1ccc(F)cc1)c1ccc2c(c1)OCO2` was 6.1%; that for `c1ccc2c(c1)c1ccccc1n2CN1CCOCC1` was -3.56%.
With `COc1cccc(/C=N/NC(=O)c2cccc3ccccc23)c1`, the “hERG current change (%, negative = inhibition) at 10uM” value amounted to 5.29%.
With `Br.C=CCn1c(=N)n(CC(=O)OCC)c2ccccc21`, the “hERG current change (%, negative = inhibition) at 10uM” value is on record as 5.36%.
For the molecule `COc1cc(OC)c(NC(=O)[C@@H]2CCC(=O)N2C2OC(=O)c3c2ccc(OC)c3OC)cc1Cl` (stereo partly drawn), the “hERG current change (%, negative = inhibition) at 10uM” value is -25.7%.
The value for `COc1ccccc1N(C)S(=O)(=O)c1ccc(C(=O)Nc2ncc(C)s2)cc1` was 14.3%; that for `CC(C)Nc1nc(NC(C)C)nc(C(=O)OCCO)n1` was 19%; that for `CN(CCNC(=O)c1cc2c(-c3ccccc3F)nn(C)c2s1)C1CCCCC1` was -50.8%.
The value for `CCCc1c(C(=O)Nc2ccc(OC)cc2)cnn1-c1ccccc1` was 10.1%; that for `Cc1ccc(C(=O)N/N=C/c2c(O)ccc3ccccc23)cn1` was 12.6%.
The value for `COc1cc(OC)cc(C(=O)NC2=NCCS2)c1` was 1.69%; that for `C=CCn1c(O)c(N=NC(=S)Nc2ccccc2C)c2cc(S(=O)(=O)N3CCOCC3)ccc21` was 16.3%.
`COc1ccc(CCCc2nnc(SCC(=O)N/N=C\c3ccc(O)c(OC)c3)o2)cc1C`: the “hERG current change (%, negative = inhibition) at 10uM” value was 13.2%.
The value for `CCN1CCN(CC(O)COCCOc2ccc(Br)cc2)CC1.Cl` (stereo not drawn) was -12.3%; that for `Cc1ccc(C(=O)Oc2ccc(C(=S)N3CCOCC3)cc2)cc1` was -7.84%; that for `CCc1nnc(NC(=O)CSc2ccc(-c3nc4ccccc4[nH]3)cn2)s1` was 5.82%.
The value for `CCN(CC)c1nc(N)nc(NS(=O)(=O)c2ccc(Cl)cc2)n1` was -6.14%; that for `O=C(NCCCCNC(=O)c1ccc(Br)s1)c1ccc(Br)s1` was 0.848%; that for `CCOc1ccc(CCNC(=O)c2nnn(CC(=O)Nc3ccc(C)cc3)c2N)cc1OCC` was -0.277%.
The value for `CCN1CCN(C(=S)NCC2CCCO2)CC1.O=C(O)C(=O)O` (stereo not drawn) was 13.2%.
In the case of `O=C1CC(Nc2ccc(N3CCOCC3)cc2)C(=O)N1c1cccc(C(F)(F)F)c1` (stereo not drawn), the “hERG current change (%, negative = inhibition) at 10uM” value is -1.55%.
Turning to `Cc1nc(N/N=C\c2ccc3c(c2)OCO3)sc1C`, the “hERG current change (%, negative = inhibition) at 10uM” value worked out at 20.4%.
The value for `O=C(Cc1ccccc1[N+](=O)[O-])NNC(=O)c1cccs1` was 13.6%; that for `Cc1ccc(/C=N/NC(=O)c2cccc(NC(=O)c3ccccc3C)c2)o1` was -16.8%; that for `Cn1c(=O)c(Nc2ccc(Cl)cc2)c2c3c(cccc31)C(=O)c1ccccc1-2` was 6.18%.
The value for `Cc1ccccc1NC(=O)Nc1ccccc1C(N)=O` was 16.3%.
Next, `CC1(C)CC(=O)C(CC2=C(O)CC(C)(C)CC2=O)C(=O)C1`: 15%; `CCOC(=O)/C(=C\C=C\c1ccccc1)NC(=O)c1ccccc1`: -39.2%.
As to `CN(Cc1ccccc1)C(=O)c1ccc(NC(=O)Cc2cccc(NC(=O)C3CCCN(C(=O)C4CCCCC4)C3)c2)cc1` (stereo not drawn), the “hERG current change (%, negative = inhibition) at 10uM” value is 4.11%.
The value for `CCOC(=O)C(=Cc1ccc(F)cc1)C(=O)OCC` was 1.06%; that for `O=Cc1cn(Cc2cccc([N+](=O)[O-])c2)c2ccccc12` was -47.8%; that for `Fc1ccc(CNc2nc(-c3ccco3)cc(C(F)(F)F)n2)cc1` was 12.6%.

The values above are taken from publication PMC4336329 (PLoS ONE, 2015).
